From publication PMC6919601, “Identification of Plasmodium dipeptidyl aminopeptidase allosteric inhibitors by high throughput screening” (PLoS ONE, 2019)
The whole screen tested about 110,000 compounds, of which about 230 (0.21%) showed an effect of 50% or more. The list shows a part of the results.

Each compound was assayed against DPAP1 (Plasmodium falciparum, UniProt Q8IIJ9) (assay: primary screen, percent inhibition; read by cleavage of a fluorogenic dipeptide substrate; higher = more effect of the substance).
Chain of DPAP1 (Q8IIJ9 whole entry, looked up): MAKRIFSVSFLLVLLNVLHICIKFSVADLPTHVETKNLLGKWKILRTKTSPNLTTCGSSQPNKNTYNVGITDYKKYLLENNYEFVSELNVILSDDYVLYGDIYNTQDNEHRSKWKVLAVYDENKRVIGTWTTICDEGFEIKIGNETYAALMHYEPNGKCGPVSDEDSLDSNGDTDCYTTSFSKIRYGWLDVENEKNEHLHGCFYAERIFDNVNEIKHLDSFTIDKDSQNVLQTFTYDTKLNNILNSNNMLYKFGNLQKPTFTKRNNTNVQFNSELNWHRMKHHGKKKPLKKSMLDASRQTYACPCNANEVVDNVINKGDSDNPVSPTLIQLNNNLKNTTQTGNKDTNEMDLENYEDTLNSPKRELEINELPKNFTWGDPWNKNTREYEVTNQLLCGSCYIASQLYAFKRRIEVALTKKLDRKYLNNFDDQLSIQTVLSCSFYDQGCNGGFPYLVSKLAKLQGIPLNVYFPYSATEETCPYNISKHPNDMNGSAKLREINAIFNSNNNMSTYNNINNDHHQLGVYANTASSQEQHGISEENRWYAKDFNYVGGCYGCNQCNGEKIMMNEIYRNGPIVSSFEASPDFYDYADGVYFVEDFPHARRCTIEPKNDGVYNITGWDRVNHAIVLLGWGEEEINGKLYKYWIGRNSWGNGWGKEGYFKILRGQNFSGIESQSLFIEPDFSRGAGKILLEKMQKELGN
Design: species or system P. falciparum D10 trophozoite lysates; single well
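Further: 30 min substrate incubation versus DMSO and 10 µM JCP410 controls.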

| Structure (SMILES) | % Inhibition @ 10 uM |
| --- | --- |
| CCN1CCN(c2nc3c(S(=O)(=O)c4ccc(C(C)C)cc4)nnn3c3ccsc23)CC1 | -5.57% |
| CC(C)(C)C(=O)Nc1noc2ccccc12 | 2.19% |
| O=[N+]([O-])c1ccc(CN2CCN(c3ncccn3)CC2)cc1 | 3.16% |
| CCOc1ccccc1C(=O)N1CC(C)N(C(=O)c2ccccc2OCC)CC1C (centres unmarked) | -3.26% |
| CN(C)c1ccc(CN(CCO)CCO)cc1 | -2.34% |
| COc1ccc(-c2nc(-c3c(C)[nH]c4ccccc34)cs2)cc1OC | 6.59% |
| Cc1oc2ccc(O)c(CN3CCCCC3C)c2c1C(=O)OCC(C)C (centres unmarked) | -8.69% |
| O=C(CSc1nc2nncc-2c(O)n1-c1cccc2ccccc12)NCc1ccccc1Cl | 3.04% |
| CC1(C)CC(C(CCN)Cc2ccccc2)CCO1 (centres unmarked) | 2.62% |
| COc1ccc(C(=O)Nc2cccc(OC)c2)cc1 | 1.91% |
| C/C(=C\c1ccccc1)CN(CCCN(C)C)CCCN(C)C | -7.56% |
| Cc1ccc(CNC(=O)C2Sc3nnc(-c4ccccc4)n3NC2c2ccccc2)cc1 (centres unmarked) | 3.35% |
| CCC(C)NC(=O)c1cccc2c1C(=O)N(C1CCCCC1)C2 (centres unmarked) | 4.01% |
| COC(=O)C1=C(C)N(C2CCCCC2)C(=O)/C1=C\c1cccc(Cl)c1 | 0.0538% |
| O=C(Nc1ncc(Cc2ccccc2)s1)c1ccc2c(c1)CC(c1ccccc1)OC2=O (centres unmarked) | -4.98% |
| Cc1cc(O)n2nc(NC(=O)Cc3ccccc3)nc2n1 | -3.31% |
| CCC(=O)N1c2ccccc2N=C2CC(C)(C)CC(O)=C2C1c1c[nH]c2ccccc12 (centres unmarked) | 5.9% |
| Cc1[nH]c2ccc(C(=O)N3CCN(c4ccccn4)CC3)cc2c1C | -3.39% |
| Cc1c(C(N)=O)nnn1-c1cccc(Cl)c1 | 2.32% |
| CC(C)C[C@H](NC(=O)c1ccc(-c2cnc(N=C(N)N)s2)cc1)C(=O)N[C@@H](Cc1ccc(O)cc1)C(=O)O | 18.1% |
| O=C1NC(=O)N(c2ccccc2)C(=O)/C1=C/c1ccco1 | 0.266% |
| Cc1ccc(S(=O)(=O)N2CCN(C(=O)N3CCCC3)CC2)cc1 | 3.49% |
| CCC(Oc1ccccc1)C(=O)Nc1ccc(S(=O)(=O)Nc2cnc3ccccc3n2)cc1 (centres unmarked) | -10.2% |
| O=C(Nc1ccccc1Br)c1cc2ccccc2oc1=O | 1.8% |
| O=C(Nc1ccc(Br)cc1)c1ccccc1Cl | -3.27% |

| Structure (SMILES) | % Inhibition @ 10 uM |
| --- | --- |
| CCOc1ccc(C(=O)N(Cc2nc(-c3ccccc3)no2)C(C)C)cc1 | -7.89% |
| O=S(=O)(NCc1ccco1)c1ccc(-n2cccn2)cc1 | -1.26% |
| CN(C)CC1CSCCC1(O)c1ccccc1 (centres unmarked) | 85.1% |
| CCNC(=O)OCC(CC)NC(=O)OCC(C)C (centres unmarked) | 3.87% |
| Cc1ccc(CCNC(=O)C2CCC(CNS(=O)(=O)c3cccc4nsnc34)CC2)cc1 (centres unmarked) | -0.465% |
| C[C@@H](C[C@H](NC(=O)c1ccc(-c2ccccc2Cl)nc1)C(=O)NCC#N)c1ccccc1 | 11.1% |
| CC1CCCC(NC(=O)c2ccc(CNS(=O)(=O)c3ccccc3)cc2)C1C (centres unmarked) | 0.208% |
| CCCCN(CCCC)CCNC(=O)C1CCN(C(=O)c2cc3sccc3n2C)CC1 | 3.4% |
| COc1cc(Br)c(C2CC(=O)NC3=C2C(=O)CC(C)(C)C3)cc1OC (centres unmarked) | -7.27% |
| O=C(NC1(C(F)(F)F)C(=O)Nc2c1c(=O)[nH]c(=O)n2-c1ccccc1)c1ccc(Cl)cc1 (centres unmarked) | -3.34% |
| COc1cccc(-c2nc(CS(=O)(=O)CC(=O)NCC(C)c3ccccc3)c(C)o2)c1 (centres unmarked) | -1.89% |
| CC(C)NC(=O)CSc1cn(CC(=O)N2CCCCC2)c2ccccc12 | 1.12% |
| O=C(NCCN1CCCCCC1)C1CCCN1S(=O)(=O)c1cccc2nsnc12 (centres unmarked) | -0.465% |
| Cc1cc(C)c(C)c(C2C(C#N)=C(N)SC(N)=C2C#N)c1C | 4.22% |
| COc1ccc(C2C(C(=O)N3CCCCCC3)c3cc(OC)c(OC)cc3C(=O)N2C)cc1OC (centres unmarked) | -3.78% |
| Cc1noc(/C=C/N(C)C)c1S(=O)(=O)N1CCC(C)CC1 | 6.11% |
| Cc1c(C(=O)N2CCOCC2)oc2c1-c1nn(CC(=O)NC3CCCC(C)C3C)cc1CC2 (centres unmarked) | 1.17% |
| COCCN1C(=O)c2[nH]nc(-c3cc(C)ccc3O)c2C1c1ccc(F)cc1 (centres unmarked) | 3.81% |
| CCOc1ccc(CCNC(=O)c2ccc(CS(=O)(=O)Cc3ccc(F)cc3)o2)cc1OCC | -2.72% |
| Cc1ccc(CNC(=O)CSc2nc3ccsc3c(=O)n2C2CC2)cc1 | -1.85% |
| COc1ccc(-c2cc(-c3ccc(C)cc3)[nH]n2)c(O)c1 | 0.528% |
| CCCCN1CN(CCc2ccccc2)CC2=C1CC(C)(C)CC2=O | -1.52% |
| COc1ccccc1S(=O)(=O)Cc1ccc(C(=O)NCCCN2CCCC2=O)o1 | -4.96% |
| COC(=O)c1ccc(NC(=O)C2CC3CCC2C3)cc1 (centres unmarked) | -4.15% |
| CCCCN(CC)C(=O)c1cnc2ccc(S(=O)(=O)N(CC)CC)cc2c1O | 1.16% |

| Structure (SMILES) | % Inhibition @ 10 uM |
| --- | --- |
| CCOC(=O)C(=Cc1ccc(-c2ccc(OC)cc2)o1)C(=O)OCC | 1.67% |
| N#Cc1ccc(CSc2nc3ncccc3c(=O)n2Cc2ccccc2)cc1 | -3.44% |
| CCCCN(CCCC)C(=O)CSc1nnc(-c2ccc(C)cc2)o1 | 3.34% |
| CCOC(=O)c1c(-c2ccc(Cl)cc2)nn2c1NCN(Cc1ccccc1)C2 | -2.88% |
| CC(=O)c1c(O)cc(C)n(Cc2ccccc2)c1=O | 1.74% |
| CCC(Sc1nc2nnc(C)c-2c(N)n1-c1ccc(OC)cc1)C(=O)N1CCC(C)CC1 (centres unmarked) | -7.66% |
| COc1ccc(/C=C2\S/C(=N/c3ccc(C(=O)O)cc3)N(C)C2=O)cc1C | 0.812% |
| COc1ccccc1CCNCc1c(C(=O)O)n(Cc2ccccc2F)c2cc(C)ccc12 | -8.25% |
| CCOc1ccc(S(=O)(=O)N2CCN=C2Cc2ccccc2)cc1C | -0.0678% |
| CS(=O)(=O)C1=NN2C(=N)/C(=C\c3ccc(OCc4ccccc4)c(Cl)c3)C(=O)N=C2S1 | 3.53% |
| Cn1c(COc2cccc3cccnc23)nnc1SCC(N)=O | 5.32% |
| COC(=O)C1=C(C)/C(=C(\O)OC)C(C)=NC1c1c(O)ccc2ccccc12 (centres unmarked) | 7.93% |
| CCCCNC(=O)CCc1nc(-c2ccc(Cl)cc2)no1 | 2.02% |
| CC(C)(C)c1cc(C(=O)NCCCN2CCOCC2)cc(C(C)(C)C)c1 | 3.9% |
| CN1CCn2c1nc(N1CCOCC1)nc2=O | 1.25% |
| CCC(C)Nc1nc(NC)nc(NC(C)CC)n1 (centres unmarked) | 2.62% |
| CCN1CCN(Cc2cc(OC)c(O)c(OC)c2)CC1 | -2.56% |
| CC1(C)Nc2ccccc2N(Cc2ccccc2)C1=O | -0.865% |
| C=C1c2cc(C)ccc2NC(=O)N1c1ccccc1 | -7.31% |
| CC1CC(C)CN(C(=O)Cn2ncc3c4ccccc4n(Cc4ccccc4F)c3c2=O)C1 (centres unmarked) | -9.07% |
| CCOC(=O)c1ccc(-n2c(CCC(=O)O)ccc2-c2ccc(F)cc2)cc1 | -2.14% |
| CN1CCN(C(=O)c2cc(-c3ccco3)on2)CC1 | 0.0221% |
| COc1cc(NC(=O)C2CCN(S(=O)(=O)c3ccc4c(c3)nc(C)n4C3CCCC3)CC2)ncn1 | -0.0309% |
| Cc1cccc(-n2nnnc2S)c1 | 30% |
| CC1CCC(C(C)C)C(=O)/C1=C\c1ccc(N)cc1 (centres unmarked) | 3.82% |

| Structure (SMILES) | % Inhibition @ 10 uM |
| --- | --- |
| CC1=CC2=NC(=O)/C(=C\c3c[nH]c4ccccc34)C(=N)N2O1 | -1.43% |
| CN(C)c1ccc(C2C(C#N)=C(N)N(c3ccc(Br)cn3)C3=C2C(=O)CC(C)(C)C3)cc1 (centres unmarked) | 0.343% |
| COc1ccc(C(=O)c2oc3ccccc3c2NC(=O)Cc2ccccc2)cc1 | -1.11% |
| O=C(Nc1ccccc1C(F)(F)F)c1ccc(OC(F)F)cc1 | -2.85% |
| CC1CCCCN1S(=O)(=O)c1cccc2nonc12 (centres unmarked) | 1.04% |
| CCOC(=O)C1=C(CSc2nc(N)cc(O)n2)NC(=O)NC1c1ccc2c(c1)OCO2 (centres unmarked) | 2.99% |
| Cc1ccc(NC(=O)CN(c2ccc(C(C)C)cc2)S(C)(=O)=O)cc1C | -2.44% |
| O=S(=O)(N1CCOCC1)N1CCCN(S(=O)(=O)N2CCOCC2)CC1 | 1.51% |
| Cc1ccc(S(=O)(=O)n2nc(-c3ccccc3)nc2N)cc1 | -8.41% |
| COc1cc(C2/C(=C(\O)OC(C)C)C(C)=Nc3ncnn32)cc(OC)c1OC (centres unmarked) | 3.87% |
| COc1cccc(C2CC(c3cccc(OC)c3OC)n3ncnc3N2)c1 (centres unmarked) | 0.0842% |
| CCN1CCN(c2ccc(NC(=O)c3ccc(C#N)cc3F)cc2)CC1 | 5.99% |
| CCOc1ccc(-n2c(C)nc3cc(C(=O)NCCOC)ccc32)cc1 | -3.93% |
| Cc1cc(C(=O)NCCN(CC(C)C)CC(C)C)n(-c2ccccc2)n1 | -3.7% |
| O=C(O)COc1ccc(/C=C2\SC(Nc3cccc(C(F)(F)F)c3)=NC2=O)cc1 | 6.98% |
| COc1ccc(Br)cc1CN1CCN(c2ccccc2F)CC1 | -5.41% |
| Cc1ccnc(NC(=O)CCc2nnc3ccc(N4CCN(C)CC4)nn23)c1 | -4.66% |
| O=S(=O)(Nc1ccc(NS(=O)(=O)c2cccs2)cc1)c1cccs1 | -1.64% |
| Cn1nc(C(=O)NCCOC23CC4CC(C)(CC(C)(C4)C2)C3)c2c1-c1ccccc1OC2 | 3.3% |
| C/C(=N\O)c1ccc(C2CCCCC2)cc1 | -0.128% |
| Cc1ccc(CC2CC(=O)N(c3ccncc3)C2=O)cc1 (centres unmarked) | 3.73% |
| Oc1c2cc(F)ccc2nc2ncccc12 | 1.74% |
| O=C(NCc1ccc2c(c1)OCO2)C1CCCN(c2nc3ccccc3n3cccc23)C1 (centres unmarked) | 2.07% |
